Measured values published in the supplement of paper PMC4996465.

How the values were obtained:
KB3-1 = assay: viability (% of DMSO control); higher = more viable cells
Procedure: (§1)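 Eleven-dose screen of the NCATS MIPE 3 library on cells without co-treatment; CellTiter-Glo after 48 h, as % of DMSO wells.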

Nalm-6 = assay: as above
Procedure: as §1

Nc1cccc(S(=O)(=O)N2CCCN(S(=O)(=O)c3ccc4c(c3)OCCO4)CC2)c1
Details | viability [%]
KB3-1, 0.00078 µM | 103
KB3-1, 0.00234 µM | 98
KB3-1, 0.00702 µM | 106
KB3-1, 0.0211 µM | 100
KB3-1, 0.0632 µM | 102
KB3-1, 0.19 µM | 99.9
KB3-1, 0.569 µM | 104
KB3-1, 1.71 µM | 105
KB3-1, 5.12 µM | 101
KB3-1, 15.4 µM | 95.8
KB3-1, 46.1 µM | 91.5
Nalm-6, run: 1, 0.00078 µM | 97.9
Nalm-6, run: 1, 0.00234 µM | 108
Nalm-6, run: 1, 0.00702 µM | 111
Nalm-6, run: 1, 0.0211 µM | 115
Nalm-6, run: 1, 0.0632 µM | 129
Nalm-6, run: 1, 0.19 µM | 121
Nalm-6, run: 1, 0.569 µM | 118
Nalm-6, run: 1, 1.71 µM | 115
Nalm-6, run: 1, 5.12 µM | 130
Nalm-6, run: 1, 15.4 µM | 108
Nalm-6, run: 1, 46.1 µM | 101
Nalm-6, run: 2, 0.00078 µM | 98.8
Nalm-6, run: 2, 0.00234 µM | 107
Nalm-6, run: 2, 0.00702 µM | 109
Nalm-6, run: 2, 0.0211 µM | 105
Nalm-6, run: 2, 0.0632 µM | 112
Nalm-6, run: 2, 0.19 µM | 110
Nalm-6, run: 2, 0.569 µM | 109
Nalm-6, run: 2, 1.71 µM | 105
Nalm-6, run: 2, 5.12 µM | 108
Nalm-6, run: 2, 15.4 µM | 101
Nalm-6, run: 2, 46.1 µM | 93.5

O=C(OCC#CCSc1nnc(-c2ccc3ccccc3c2)o1)c1cc2ccccc2s1
Details | viability [%]
KB3-1, 0.00078 µM | 108
KB3-1, 0.00234 µM | 105
KB3-1, 0.00702 µM | 107
KB3-1, 0.0211 µM | 111
KB3-1, 0.0632 µM | 104
KB3-1, 0.19 µM | 108
KB3-1, 0.569 µM | 111
KB3-1, 1.71 µM | 107
KB3-1, 5.12 µM | 109
KB3-1, 15.4 µM | 103
KB3-1, 46.1 µM | 89.1
Nalm-6, run: 1, 0.00078 µM | 86.8
Nalm-6, run: 1, 0.00234 µM | 97.9
Nalm-6, run: 1, 0.00702 µM | 96.8
Nalm-6, run: 1, 0.0211 µM | 110
Nalm-6, run: 1, 0.0632 µM | 100
Nalm-6, run: 1, 0.19 µM | 116
Nalm-6, run: 1, 0.569 µM | 105
Nalm-6, run: 1, 1.71 µM | 106
Nalm-6, run: 1, 5.12 µM | 111
Nalm-6, run: 1, 15.4 µM | 78.8
Nalm-6, run: 1, 46.1 µM | 75.9
Nalm-6, run: 2, 0.00078 µM | 87.7
Nalm-6, run: 2, 0.00234 µM | 90.8
Nalm-6, run: 2, 0.00702 µM | 99.5
Nalm-6, run: 2, 0.0211 µM | 99.8
Nalm-6, run: 2, 0.0632 µM | 95.7
Nalm-6, run: 2, 0.19 µM | 97.8
Nalm-6, run: 2, 0.569 µM | 102
Nalm-6, run: 2, 1.71 µM | 104
Nalm-6, run: 2, 5.12 µM | 91.9
Nalm-6, run: 2, 15.4 µM | 83.1
Nalm-6, run: 2, 46.1 µM | 71.4

OC1=C(C=CC=C1)C2=CC=C(C=C2)C3=CSC4=C3C(=C(/C#N)C(=O)N4)/O
KB3-1
Details | viability [%]
0.00078 µM | 98.5
0.00234 µM | 97.7
0.00702 µM | 97.3
0.0211 µM | 102
0.0632 µM | 99.4
0.19 µM | 101
0.569 µM | 103
1.71 µM | 108
5.12 µM | 109
15.4 µM | 104
46.1 µM | 106

O=C(NOC[C@H](O)CO)c1ccc(F)c(F)c1Nc1ccc(I)cc1F
Details | viability [%]
KB3-1, 0.00078 µM | 92
KB3-1, 0.00234 µM | 99.8
KB3-1, 0.00702 µM | 92
KB3-1, 0.0211 µM | 92.5
KB3-1, 0.0632 µM | 93.8
KB3-1, 0.19 µM | 89.6
KB3-1, 0.569 µM | 92.8
KB3-1, 1.71 µM | 93.1
KB3-1, 5.12 µM | 99
KB3-1, 15.4 µM | 92.5
KB3-1, 46.1 µM | 93.2
Nalm-6, run: 1, 0.00078 µM | 102
Nalm-6, run: 1, 0.00234 µM | 118
Nalm-6, run: 1, 0.00702 µM | 112
Nalm-6, run: 1, 0.0211 µM | 107
Nalm-6, run: 1, 0.0632 µM | 106
Nalm-6, run: 1, 0.19 µM | 105
Nalm-6, run: 1, 0.569 µM | 101
Nalm-6, run: 1, 1.71 µM | 103
Nalm-6, run: 1, 5.12 µM | 104
Nalm-6, run: 1, 15.4 µM | 95.2
Nalm-6, run: 1, 46.1 µM | 78
Nalm-6, run: 2, 0.00078 µM | 106
Nalm-6, run: 2, 0.00234 µM | 106
Nalm-6, run: 2, 0.00702 µM | 99.6
Nalm-6, run: 2, 0.0211 µM | 96.2
Nalm-6, run: 2, 0.0632 µM | 103
Nalm-6, run: 2, 0.19 µM | 103
Nalm-6, run: 2, 0.569 µM | 99.8
Nalm-6, run: 2, 1.71 µM | 99.6
Nalm-6, run: 2, 5.12 µM | 99.2
Nalm-6, run: 2, 15.4 µM | 97.1
Nalm-6, run: 2, 46.1 µM | 84.9

O=C(Nc1nc2ccccc2n1CCN1CCOCC1)c1cccc([N+](=O)[O-])c1
Details | viability [%]
KB3-1, 0.00078 µM | 90.8
KB3-1, 0.00234 µM | 90.1
KB3-1, 0.00702 µM | 84.1
KB3-1, 0.0211 µM | 89.4
KB3-1, 0.0632 µM | 88.8
KB3-1, 0.19 µM | 89.4
KB3-1, 0.569 µM | 90.7
KB3-1, 1.71 µM | 89.5
KB3-1, 5.12 µM | 93.7
KB3-1, 15.4 µM | 89.5
KB3-1, 46.1 µM | 66.3
Nalm-6, run: 1, 0.00078 µM | 94.9
Nalm-6, run: 1, 0.00234 µM | 107
Nalm-6, run: 1, 0.00702 µM | 102
Nalm-6, run: 1, 0.0211 µM | 104
Nalm-6, run: 1, 0.0632 µM | 105
Nalm-6, run: 1, 0.19 µM | 97.6
Nalm-6, run: 1, 0.569 µM | 113
Nalm-6, run: 1, 1.71 µM | 109
Nalm-6, run: 1, 5.12 µM | 101
Nalm-6, run: 1, 15.4 µM | 95.9
Nalm-6, run: 1, 46.1 µM | 50.6
Nalm-6, run: 2, 0.00078 µM | 107
Nalm-6, run: 2, 0.00234 µM | 107
Nalm-6, run: 2, 0.00702 µM | 105
Nalm-6, run: 2, 0.0211 µM | 115
Nalm-6, run: 2, 0.0632 µM | 102
Nalm-6, run: 2, 0.19 µM | 107
Nalm-6, run: 2, 0.569 µM | 110
Nalm-6, run: 2, 1.71 µM | 109
Nalm-6, run: 2, 5.12 µM | 110
Nalm-6, run: 2, 15.4 µM | 103
Nalm-6, run: 2, 46.1 µM | 49.2

Nc1cccc2c1CN(C1CCC(=O)NC1=O)C2=O (centres undefined) [Lenalidomide]
KB3-1
Details | viability [%]
0.00156 µM | 106
0.00468 µM | 103
0.014 µM | 104
0.0421 µM | 104
0.126 µM | 102
0.379 µM | 103
1.14 µM | 101
3.41 µM | 102
10.2 µM | 102
30.7 µM | 98.7
92.2 µM | 99.7

COC1=CC=C(C(=C1)OC(C)C)C/2=N/[C@@H]([C@@H](N2C(=O)N3CCNC(=O)C3)C4=CC=C(Cl)C=C4)C5=CC=C(Cl)C=C5 [Nutlin-3]
KB3-1
Details | viability [%]
0.00078 µM | 98.7
0.00234 µM | 101
0.00702 µM | 101
0.0211 µM | 105
0.0632 µM | 97.9
0.19 µM | 99.3
0.569 µM | 102
1.71 µM | 101
5.12 µM | 106
15.4 µM | 104
46.1 µM | 59.8

CCC(C)(C)C(=O)O[C@H]1C[C@@H](C)C=C2C=C[C@H](C)[C@H](CC[C@@H]3C[C@@H](O)CC(=O)O3)[C@H]21 [Simvastatin]
Nalm-6
Details | viability [%]
run: 1, 0.000349 µM | 77.4
run: 1, 0.00105 µM | 88.7
run: 1, 0.00314 µM | 111
run: 1, 0.00942 µM | 101
run: 1, 0.0283 µM | 89.4
run: 1, 0.0848 µM | 114
run: 1, 0.254 µM | 105
run: 1, 0.763 µM | 108
run: 1, 2.29 µM | 114
run: 1, 6.87 µM | 122
run: 1, 20.6 µM | 57.4
run: 2, 0.000349 µM | 99.4
run: 2, 0.00105 µM | 94.7
run: 2, 0.00314 µM | 105
run: 2, 0.00942 µM | 98.3
run: 2, 0.0283 µM | 100
run: 2, 0.0848 µM | 104
run: 2, 0.254 µM | 101
run: 2, 0.763 µM | 100
run: 2, 2.29 µM | 101
run: 2, 6.87 µM | 104
run: 2, 20.6 µM | 75

COc1ccc(CCN(C)CCCC(C#N)(c2ccc(OC)c(OC)c2)C(C)C)cc1OC (centres undefined) [Verapamil]
Nalm-6
Details | viability [%]
run: 1, 0.00078 µM | 89.8
run: 1, 0.00234 µM | 99.5
run: 1, 0.00702 µM | 103
run: 1, 0.0211 µM | 95.6
run: 1, 0.0632 µM | 100
run: 1, 0.19 µM | 103
run: 1, 0.569 µM | 109
run: 1, 1.71 µM | 107
run: 1, 5.12 µM | 104
run: 1, 15.4 µM | 97.7
run: 1, 46.1 µM | 72.7
run: 2, 0.00078 µM | 91.2
run: 2, 0.00234 µM | 101
run: 2, 0.00702 µM | 103
run: 2, 0.0211 µM | 97.4
run: 2, 0.0632 µM | 104
run: 2, 0.19 µM | 95.6
run: 2, 0.569 µM | 97.8
run: 2, 1.71 µM | 102
run: 2, 5.12 µM | 102
run: 2, 15.4 µM | 105
run: 2, 46.1 µM | 59.4

Viability of KB3-1 and Nalm-6 cells after 48 h of drug alone (CellTiter-Glo), 11 doses over about 4.5 log units. % of DMSO wells, lower = more cell loss; AC50 from the fitted curve, lower = more potent. No active / inactive call. Nalm-6 was screened in two runs. AC50 is listed only for well-fitted inhibitory curves. KB3-1 is a HeLa-derived carcinoma line, Nalm-6 a B-cell precursor leukaemia line.
